Here are results for 38 compounds from the supplement of paper PMC9135407.

The test system of the experiment is primary human hepatic stellate cells (donor 1). Put plainly: scaled lipid accumulation score (0 = DMSO-like, 1 = nortriptyline-like); higher = stronger HSC inactivation (lipid re-accumulation), active = hit call of the paper. The note with it: 48 h.
Where [1] appears, read: library stock concentration: 10 mM.
Where [2] appears, read: library stock concentration: 1 mM.
The mark [3] stands for this setting: library stock concentration: 3.33 mM.
Where [4] appears, read: library stock concentration: 80 uM.
[5] abbreviates: library stock concentration: 400 uM.
Where [6] appears, read: library stock concentration: 2 mM.

Values joined by “and” are separate entries in the source; they are usually repeats but may differ in a detail not shown here. Identical values can stand only once. Counter-ions that a name gives are not always drawn. Hit rate of the full screen: of about 5,800 compounds, about 620 (11%) showed activity.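 Rule for the calls: active = score above a cut-off or among the top three wells of a plate; in these data no inactive exceeds 0.85.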 Only a part is listed here, and it is no random draw.

`CCn1c(=O)n(C2=C(CO)CN(CC3CCCCCCC3)CC2)c2ccccc21`: the “scaled lipid accumulation score” value under setting [1] is inactive: 0.105.
Regarding `CCCCCCCC/C=C\CCCCCCCC(=O)O` [Oleic Acid], the “scaled lipid accumulation score” value under setting [2] is inactive: ≤ 0 and the “scaled lipid accumulation score” value under setting [1] was inactive: ≤ -0.015.
For `Nc1nc2c(nc(O)n2[C@@H]2O[C@H](CO)[C@@H](O)[C@H]2O)c(=O)[nH]1` [8-hydroxy Guanosine], under setting [2], the “scaled lipid accumulation score” value is inactive: ≤ 0.
For `CCCCC[C@H](O)CC(=O)CCc1ccc(O)c(OC)c1` [6-Gingerol], the “scaled lipid accumulation score” value (library stock concentration: 17 mM) is inactive: ≤ -0.014.
With `CO[C@H]1C[C@@H]2CC[C@@H](C)[C@@](O)(O2)C(=O)C(=O)N2CCCC[C@H]2C(=O)O[C@H]([C@H](C)C[C@@H]2CC[C@@H](OP(C)(C)=O)[C@H](OC)C2)CC(=O)[C@H](C)/C=C(\C)[C@@H](O)[C@@H](OC)C(=O)[C@H](C)C[C@H](C)/C=C/C=C/C=C/1C` [Ridaforolimus (Deforolimus, MK-8669)], the “scaled lipid accumulation score” value was inactive: ≤ 0 under setting [3] and inactive: ≤ 0 under setting [1].
For the compound `Cc1c(OCC(F)(F)F)ccnc1C[S+]([O-])c1nc2ccccc2[nH]1` (configuration not stated) [Lansoprazole], the “scaled lipid accumulation score” value was inactive: ≤ 0. Besides, under setting [3], the “scaled lipid accumulation score” value is inactive: ≤ 0. In addition, the “scaled lipid accumulation score” value (library stock concentration: 5.4 mM) is inactive: ≤ 0.
In the case of `CNCCc1c[nH]c(CCC(c2ccccc2)c2ccccc2)n1.O=C(O)C(=O)O.O=C(O)C(=O)O` [N-Methylhistaprodifen dioxalate salt], the “scaled lipid accumulation score” value under setting [1] was active: 1.02.
Still for that read-out and setting: under `[N-]=[N+]=Nc1ccc(C(=O)CSC[C@H](NC(=O)CC[C@H](N)C(=O)O)C(=O)NCC(=O)O)cc1` [S-(p-Azidophenacyl)glutathione] stands inactive: ≤ 0; under `Cn1c(=O)c2c(ncn2C)n(C)c1=O` [Caffeine], inactive: ≤ 0.
`COc1cc2c(Nc3ccc(Br)cc3F)ncnc2cc1OCC1CCN(C)CC1` [Vandetanib (ZD6474)]: under setting [3], the “scaled lipid accumulation score” value is active: 1.18.
For the compound `O=C1CCc2c(ccc3ccccc23)O1` [Splitomicin], under setting [1], the “scaled lipid accumulation score” value is inactive: ≤ -0.006.
Regarding `CC[C@@H]1C(=O)N(C)c2cnc(Nc3ccc(C(=O)NC4CCN(C)CC4)cc3OC)nc2N1C1CCCC1`, the “scaled lipid accumulation score” value is, setting by setting: under setting [4], inactive: 0.007; under setting [5], inactive: 0.527; under setting [6], inactive: 0.722 and inactive: 0.628; under setting [3], inactive: 0.569; under setting [1], inactive: 0.749 and inactive: 0.538 and inactive: 0.259.
For the compound `O=S(=O)(c1cccc2c(Cl)cccc12)N1CCCNCC1`, the “scaled lipid accumulation score” value (library stock concentration: 15.4 mM) is active: 0.912.
`O=C1c2ccccc2C(Cc2ccncc2)(Cc2ccncc2)c2ccccc21` [XE 991 dihydrochloride]: under setting [1], the “scaled lipid accumulation score” value is inactive: ≤ -0.001.
As for `O=C(NCCN1CCC(n2c(=O)[nH]c3cc(Cl)ccc32)CC1)c1ccc(F)cc1` [Halopemide], the “scaled lipid accumulation score” value under setting [2] is inactive: ≤ 0.
As to `COC(=O)Nc1nc2cc(C(=O)c3ccc(F)cc3)ccc2[nH]1`, the “scaled lipid accumulation score” value under setting [1] was inactive: 0.633.
Regarding `COC(=O)Nc1nc2cc(C(=O)c3ccc(F)cc3)ccc2[nH]1` [Flubendazole], for the setting “library stock concentration: 6.4 mM”, the “scaled lipid accumulation score” value is inactive: 0.751.
On to `COc1cc2ncnc(Nc3cccc(O)c3)c2cc1OC` [WHI-P180, Hydrochloride], for which the “scaled lipid accumulation score” value under setting [3] was inactive: ≤ 0.
For `CN(C)CC=CC(=O)Nc1cc2c(Nc3ccc(F)c(Cl)c3)ncnc2cc1OC1CCOC1` (configuration not stated), the “scaled lipid accumulation score” value under setting [6] is active: 0.855.
Turning to `CC(=O)O[C@H]1Cc2ccccc2N(C(N)=O)c2ccccc21`, the “scaled lipid accumulation score” value under setting [1] is inactive: ≤ 0.
Consider `CCOC(=O)c1ccc(O)cc1` [Ethyl paraben], for which, under “library stock concentration: 12 mM”, the “scaled lipid accumulation score” value is inactive: ≤ -0.001.
Take `O=C(Nc1ccc(C(F)(F)F)cn1)N1CCN(c2ncccc2C(F)(F)F)CC1`: the “scaled lipid accumulation score” value under setting [1] was inactive: 0.012.
For the compound `CC(C)(C)NC(=O)[C@@H]1CN(Cc2cccnc2)CCN1C[C@@H](O)C[C@@H](Cc1ccccc1)C(=O)N[C@H]1c2ccccc2C[C@H]1O`, under setting [1], the “scaled lipid accumulation score” value is inactive: ≤ 0.
On the same count and under the same terms, as for `CC(=O)NCCc1c(Cc2ccccc2)[nH]c2ccccc12` [Luzindole], the figure is inactive: ≤ 0.
Regarding `O=C(O[C@@H]1C[C@@H]2C[C@H]3C[C@H](C1)N2CC3=O)c1c[nH]c2ccccc12` [Dolasetron], for the setting “library stock concentration: 6.2 mM”, the “scaled lipid accumulation score” value was inactive: ≤ -0.002.
Take `O=C(O[C@@H]1C[C@@H]2C[C@H]3C[C@H](C1)N2CC3=O)c1c[nH]c2ccccc12`: the “scaled lipid accumulation score” value (library stock concentration: 10.4 mM) was inactive: ≤ 0.
As to `O=C(O)c1ccccc1Nc1cccc(OCc2ccc3ccccc3n2)c1` [SR 2640 hydrochloride], the “scaled lipid accumulation score” value under setting [1] was inactive: ≤ -0.006.
Same read-out and setting: under `O=C(O)c1ccccc1Nc1cccc(OCc2ccc3ccccc3n2)c1` stands inactive: ≤ 0.
The same measure, in the same setting: as for `COc1cc(C(O)C(=O)O)ccc1O` (configuration not stated), the figure is inactive: ≤ -0.036.
Same read-out and setting: as for `CC(O)CC(C)(C)O` (configuration not stated), the figure is inactive: ≤ 0.
With `CCCCC[C@H](O)/C=C/[C@@H]1[C@H]2C/C(=C/CCCC(=O)O)O[C@H]2C[C@H]1O` [Prostaglandin I2 (sodium salt)], the “scaled lipid accumulation score” value under setting [2] is inactive: ≤ 0.
As for `CCCCC[C@H](O)/C=C/[C@@H]1[C@H]2C/C(=C/CCCC(=O)O)O[C@H]2C[C@H]1O` [Prostaglandin I2], under setting [2], the “scaled lipid accumulation score” value is inactive: ≤ -0.021.
Regarding `NC1=N[C@@]2(c3cc(NC(=O)c4ccc(F)cn4)ccc3F)COC[C@H]2CS1`, the “scaled lipid accumulation score” value under setting [3] was inactive: 0.012 and the “scaled lipid accumulation score” value under setting [1] is inactive: 0.209.
For `COc1ccc(COc2cc3oc(=O)c4cc(C(C)O)ccc4c3cc2OC)cc1` (configuration not stated) [Palomid 529 (P529)], in that order: inactive: ≤ 0 and inactive: ≤ 0.
Regarding `COc1ccc(COc2cc3oc(=O)c4cc(C(C)O)ccc4c3cc2OC)cc1` (configuration not stated), the “scaled lipid accumulation score” value under setting [4] is inactive: ≤ 0, the “scaled lipid accumulation score” value under setting [5] is inactive: 0.025, the “scaled lipid accumulation score” value under setting [6] was inactive: ≤ 0 and the “scaled lipid accumulation score” value under setting [1] was inactive: 0.307.
With `CCN(CC)CCCCC1CCN(CC(=O)N2c3ccccc3C(=O)Nc3cccnc32)CC1`, the “scaled lipid accumulation score” value under setting [1] was inactive: 0.136.
On to `COc1ccccc1N1CCN(CCN2C(=O)CC3(CCCC3)CC2=O)CC1`, for which the “scaled lipid accumulation score” value was inactive: 0.031 under setting [3] and inactive: 0.068 under setting [1].
`COc1ccccc1N1CCN(CCN2C(=O)CC3(CCCC3)CC2=O)CC1` [BMY 7378 dihydrochloride]: the “scaled lipid accumulation score” value under setting [1] is inactive: ≤ 0.
